Laboratory results reported in publication PMC9911399, “Two distinct binding modes provide the RNA-binding protein RbFox with extraordinary sequence specificity”.
Positions count from the first letter of the chain named. Some of the results follow.

T1: RBFOX1 RRM RbFoxmut (Fox-RRM*) (Homo sapiens, UniProt Q9NWB1 109-208, R118D;E147R;N151S;E152T)
T1 sequence: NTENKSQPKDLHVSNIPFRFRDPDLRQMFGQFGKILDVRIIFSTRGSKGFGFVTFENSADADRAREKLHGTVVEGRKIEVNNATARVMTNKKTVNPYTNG

B1: GGCUCGU (DNA:RNA)
RNA: GGGAGACCGGAAUUCAGAUUGUCCGGCUCGUUUAAAUCCCGUCGUAGCCACCA
DNA 1: CAATCTGAATTCCGGTCTCCC
DNA 2: TGGTGGCTACGACGGGATT
B2: AGAUAUC (DNA:RNA)
RNA: B1 RNA with G25A, C27A, C29A, G30U, U31C
DNA 1: CAATCTGAATTCCGGTCTCCC
DNA 2: TGGTGGCTACGACGGGATT
B3: GCCUGAU (DNA:RNA)
RNA: B1 RNA with G26C, C29G, G30A
DNA 1: CAATCTGAATTCCGGTCTCCC
DNA 2: TGGTGGCTACGACGGGATT
B4: AGCCUUU (DNA:RNA)
RNA: B1 RNA with G25A, U28C, C29U, G30U
DNA 1: CAATCTGAATTCCGGTCTCCC
DNA 2: TGGTGGCTACGACGGGATT
B5: GCGGGUA (DNA:RNA)
RNA: B1 RNA with G26C, C27G, U28G, C29G, G30U, U31A
DNA 1: CAATCTGAATTCCGGTCTCCC
DNA 2: TGGTGGCTACGACGGGATT
B6: UGCUCAG (DNA:RNA)
RNA: B1 RNA with G25U, G30A, U31G
DNA 1: CAATCTGAATTCCGGTCTCCC
DNA 2: TGGTGGCTACGACGGGATT
B7: GAGUAAA (DNA:RNA)
RNA: B1 RNA with G26A, C27G, C29A, G30A, U31A
DNA 1: CAATCTGAATTCCGGTCTCCC
DNA 2: TGGTGGCTACGACGGGATT
B8: UCUCGUG (DNA:RNA)
RNA: GGGAGACCGGAAUUCAGAUUGUCCUCUCGUGUUAAAUCCCGUCGUAGCCACCA
DNA 1: CAATCTGAATTCCGGTCTCCC
DNA 2: TGGTGGCTACGACGGGATT
B9: AACUUAC (DNA:RNA)
RNA: B1 RNA with G25A, G26A, C29U, G30A, U31C
DNA 1: CAATCTGAATTCCGGTCTCCC
DNA 2: TGGTGGCTACGACGGGATT
B10: AGGUGGA (DNA:RNA)
RNA: B1 RNA with G25A, C27G, C29G, U31A
DNA 1: CAATCTGAATTCCGGTCTCCC
DNA 2: TGGTGGCTACGACGGGATT
B11: GACUACU (DNA:RNA)
RNA: B1 RNA with G26A, C29A, G30C
DNA 1: CAATCTGAATTCCGGTCTCCC
DNA 2: TGGTGGCTACGACGGGATT
B12: AUCAGCC (DNA:RNA)
RNA: B1 RNA with G25A, G26U, U28A, C29G, G30C, U31C
DNA 1: CAATCTGAATTCCGGTCTCCC
DNA 2: TGGTGGCTACGACGGGATT
B13: GAAGAAG (DNA:RNA)
RNA: B1 RNA with G26A, C27A, U28G, C29A, G30A, U31G
DNA 1: CAATCTGAATTCCGGTCTCCC
DNA 2: TGGTGGCTACGACGGGATT
B14: CAUGCAU (DNA:RNA)
RNA: B1 RNA with G25C, G26A, C27U, U28G, G30A
DNA 1: CAATCTGAATTCCGGTCTCCC
DNA 2: TGGTGGCTACGACGGGATT
B15: AAGCCAG (DNA:RNA)
RNA: B8 RNA with U25A, C26A, U27G, G29C, U30A
DNA 1: CAATCTGAATTCCGGTCTCCC
DNA 2: TGGTGGCTACGACGGGATT
B16: AUGUCAC (DNA:RNA)
RNA: B1 RNA with G25A, G26U, C27G, G30A, U31C
DNA 1: CAATCTGAATTCCGGTCTCCC
DNA 2: TGGTGGCTACGACGGGATT
B17: GAAGUCG (DNA:RNA)
RNA: B1 RNA with G26A, C27A, U28G, C29U, G30C, U31G
DNA 1: CAATCTGAATTCCGGTCTCCC
DNA 2: TGGTGGCTACGACGGGATT
B18: CUCAUGA (DNA:RNA)
RNA: B1 RNA with G25C, G26U, U28A, C29U, U31A
DNA 1: CAATCTGAATTCCGGTCTCCC
DNA 2: TGGTGGCTACGACGGGATT
B19: CCGCUCU (DNA:RNA)
RNA: B8 RNA with U25C, U27G, G29U, U30C, G31U
DNA 1: CAATCTGAATTCCGGTCTCCC
DNA 2: TGGTGGCTACGACGGGATT
B20: AAGAUUG (DNA:RNA)
RNA: B8 RNA with U25A, C26A, U27G, C28A, G29U
DNA 1: CAATCTGAATTCCGGTCTCCC
DNA 2: TGGTGGCTACGACGGGATT
B21: AAUUUCG (DNA:RNA)
RNA: B8 RNA with U25A, C26A, C28U, G29U, U30C
DNA 1: CAATCTGAATTCCGGTCTCCC
DNA 2: TGGTGGCTACGACGGGATT
B22: ACGUGUC (DNA:RNA)
RNA: B8 RNA with U25A, U27G, C28U, G31C
DNA 1: CAATCTGAATTCCGGTCTCCC
DNA 2: TGGTGGCTACGACGGGATT
B23: GAAUGCU (DNA:RNA)
RNA: B1 RNA with G26A, C27A, C29G, G30C
DNA 1: CAATCTGAATTCCGGTCTCCC
DNA 2: TGGTGGCTACGACGGGATT
B24: CAUGCCG (DNA:RNA)
RNA: B8 RNA with U25C, C26A, C28G, G29C, U30C
DNA 1: CAATCTGAATTCCGGTCTCCC
DNA 2: TGGTGGCTACGACGGGATT
B25: GGACCCA (DNA:RNA)
RNA: B1 RNA with C27A, U28C, G30C, U31A
DNA 1: CAATCTGAATTCCGGTCTCCC
DNA 2: TGGTGGCTACGACGGGATT
B26: CAUGACU (DNA:RNA)
RNA: B1 RNA with G25C, G26A, C27U, U28G, C29A, G30C
DNA 1: CAATCTGAATTCCGGTCTCCC
DNA 2: TGGTGGCTACGACGGGATT
B27: GCACGUU (DNA:RNA)
RNA: B8 RNA with U25G, U27A, G31U
DNA 1: CAATCTGAATTCCGGTCTCCC
DNA 2: TGGTGGCTACGACGGGATT
B28: AGUACAG (DNA:RNA)
RNA: B1 RNA with G25A, C27U, U28A, G30A, U31G
DNA 1: CAATCTGAATTCCGGTCTCCC
DNA 2: TGGTGGCTACGACGGGATT
B29: CACCGGU (DNA:RNA)
RNA: B1 RNA with G25C, G26A, U28C, C29G
DNA 1: CAATCTGAATTCCGGTCTCCC
DNA 2: TGGTGGCTACGACGGGATT
B30: CCUCCGC (DNA:RNA)
RNA: B8 RNA with U25C, G29C, U30G, G31C
DNA 1: CAATCTGAATTCCGGTCTCCC
DNA 2: TGGTGGCTACGACGGGATT
B31: UCAUAUU (DNA:RNA)
RNA: B8 RNA with U27A, C28U, G29A, G31U
DNA 1: CAATCTGAATTCCGGTCTCCC
DNA 2: TGGTGGCTACGACGGGATT

These binders were tested against T1, RBFOX1 RRM RbFoxmut (Fox-RRM*) (assay: EMSA; HiTS-Eq, 1 nM pool, 10 min; buffer printed only for the single-RNA assays: 10 mM Tris pH 7.5, 150 mM NaCl, 3.4 mM EDTA, 0.001% NP-40, 30 C). Settings: tags: His6 N-terminal (pET28a); label: 5' 32P.
Outline: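 A pool of RNA with 7 randomized nucleotides, 5′-radiolabelled and with DNA-annealed flanks, was equilibrated at 1 nM for 10 min in 50 µL with purified RbFox RRM, wild type or mutant, across increasing protein concentrations. Free RNA was separated by 8% native PAGE, excised, reverse-transcribed, barcoded by PCR and sequenced. Relative association constants were obtained from read-count changes of each RNA species versus the control reaction and normalised to the cognate motif.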
For B1, the binding signal was 0.249 KA relative to UGCAUGU. B2 was tested, and the binding signal was 0.0876 KA relative to UGCAUGU. In the case of B3, the binding signal is reported as 0.113 KA relative to UGCAUGU. With B4 the binding signal was 0.057 KA relative to UGCAUGU. In the case of B5, the binding signal is reported as 0.157 KA relative to UGCAUGU. B6 was tested, and the binding signal was 0.0844 KA relative to UGCAUGU. For B7, the binding signal was 0.097 KA relative to UGCAUGU. For B8, the binding signal was 0.12 KA relative to UGCAUGU. In the case of B9, the binding signal is reported as 0.0902 KA relative to UGCAUGU. B10 was tested, and the binding signal was 0.0973 KA relative to UGCAUGU. In the case of B11, the binding signal is reported as 0.103 KA relative to UGCAUGU. For B12, the binding signal was 0.0782 KA relative to UGCAUGU. In the case of B13, the binding signal is reported as 0.0975 KA relative to UGCAUGU. With B14 the binding signal was 0.143 KA relative to UGCAUGU. With B15 the binding signal was 0.112 KA relative to UGCAUGU. In the case of B16, the binding signal is reported as 0.0902 KA relative to UGCAUGU. With B17 the binding signal was 0.103 KA relative to UGCAUGU. B18 was tested, and the binding signal was 0.115 KA relative to UGCAUGU. B19 was tested, and the binding signal was 0.0607 KA relative to UGCAUGU. With B20 the binding signal was 0.223 KA relative to UGCAUGU. B21 was tested, and the binding signal was 0.0766 KA relative to UGCAUGU. B22 was tested, and the binding signal was 0.254 KA relative to UGCAUGU. With B23 the binding signal was 0.634 KA relative to UGCAUGU. With B24 the binding signal was 0.0986 KA relative to UGCAUGU. With B25 the binding signal was 0.0818 KA relative to UGCAUGU. For B26, the binding signal was 0.074 KA relative to UGCAUGU. For B27, the binding signal was 0.318 KA relative to UGCAUGU. In the case of B28, the binding signal is reported as 0.0613 KA relative to UGCAUGU. In the case of B29, the binding signal is reported as 0.0698 KA relative to UGCAUGU. In the case of B30, the binding signal is reported as 0.0792 KA relative to UGCAUGU. For B31, the binding signal was 0.105 KA relative to UGCAUGU.
